From the supplement of paper PMC8728848
The list shows a part of the results.

Tests used:
Experiment in all cases: glycan array binding signal (z-score within array); higher = stronger binding
Conditions in all cases: glycan notation: IUPAC condensed, linker removed
[1] = molecular target: GlcNAc(b1-3)Gal(b1-4)GlcNAc(b1-3)Gal(b1-4)GlcNAc
Summary of the method: (§1)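 Columns mapping to the same glycan were averaged after glycan names were converted to IUPAC-condensed notation. The data come from 3228 arrays in the Consortium for Functional Glycomics database, limited to those with an available protein sequence. Binding is reported as a within-array Z-score averaged across arrays of one protein sequence and across linkers.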

GlcNAc(b1-3)GalNAc = molecular target: GlcNAc(b1-3)GalNAc
Summary of the method: as §1

GlcNAc(b1-3)Man = molecular target: GlcNAc(b1-3)Man
Summary of the method: as §1

[2] = molecular target: GlcNAc(b1-3)[GlcNAc(b1-4)][GlcNAc(b1-6)]GlcNAc
Summary of the method: as §1

[3] = molecular target: GlcNAc(b1-3)[GlcNAc(b1-6)]Gal(b1-4)GlcNAc
Summary of the method: as §1

[4] = molecular target: GlcNAc(b1-3)[GlcNAc(b1-6)]GalNAc
Summary of the method: as §1

[5] = molecular target: GlcNAc(b1-4)Gal(b1-4)GlcNAc
Summary of the method: as §1

GlcNAc(b1-4)GlcNAc = molecular target: GlcNAc(b1-4)GlcNAc
Summary of the method: as §1

[6] = molecular target: GlcNAc(b1-4)GlcNAc(b1-4)GlcNAc
Summary of the method: as §1

[7] = molecular target: GlcNAc(b1-4)GlcNAc(b1-4)GlcNAc(b1-4)GlcNAc(b1-4)GlcNAc
Summary of the method: as §1

[8] = molecular target: GlcNAc(b1-4)GlcNAc(b1-4)GlcNAc(b1-4)GlcNAc(b1-4)GlcNAc(b1-4)GlcNAc
Summary of the method: as §1

[9] = molecular target: GlcNAc(b1-4)[GlcNAc(b1-6)]GalNAc
Summary of the method: as §1

[10] = molecular target: GlcNAc(b1-6)Gal(b1-4)GlcNAc
Summary of the method: as §1

GlcNAc(b1-6)GalNAc = molecular target: GlcNAc(b1-6)GalNAc
Summary of the method: as §1

GlcNAc3Prop(b1-4)GlcNAc = molecular target: GlcNAc3Prop(b1-4)GlcNAc
Summary of the method: as §1

[11] = molecular target: GlcNAc6S(b1-3)Gal(b1-4)GlcNAc
Summary of the method: as §1

Kdn(a2-3)Gal(b1-3)GalNAc = molecular target: Kdn(a2-3)Gal(b1-3)GalNAc
Summary of the method: as §1

Kdn(a2-3)Gal(b1-3)GlcNAc = molecular target: Kdn(a2-3)Gal(b1-3)GlcNAc
Summary of the method: as §1

Kdn(a2-3)Gal(b1-4)Glc = molecular target: Kdn(a2-3)Gal(b1-4)Glc
Summary of the method: as §1

Kdn(a2-3)Gal(b1-4)GlcNAc = molecular target: Kdn(a2-3)Gal(b1-4)GlcNAc
Summary of the method: as §1

[12] = molecular target: Kdn(a2-3)Gal(b1-4)[Fuc(a1-3)]GlcNAc
Summary of the method: as §1

Kdn(a2-6)Gal(b1-4)GlcNAc = molecular target: Kdn(a2-6)Gal(b1-4)GlcNAc
Summary of the method: as §1

[13] = molecular target: Man(a1-2)Man(a1-2)Man(a1-3)Man
Summary of the method: as §1

[14] = molecular target: Man(a1-2)Man(a1-2)Man(a1-6)[Man(a1-3)]Man
Summary of the method: as §1

Man(a1-2)Man(a1-3)Man = molecular target: Man(a1-2)Man(a1-3)Man
Summary of the method: as §1

[15] = molecular target: Man(a1-2)Man(a1-3)[Man(a1-2)Man(a1-6)]Man
Summary of the method: as §1

[16] = molecular target: Man(a1-2)Man(a1-3)[Man(a1-2)Man(a1-6)]Man(a1-6)[Man(a1-2)Man(a1-2)Man(a1-3)]Man
Summary of the method: as §1

[17] = molecular target: Man(a1-2)Man(a1-3)[Man(a1-2)Man(a1-6)]Man(a1-6)[Man(a1-2)Man(a1-2)Man(a1-3)]Man(b1-4)GlcNAc(b1-4)GlcNAc
Summary of the method: as §1

[18] = molecular target: Man(a1-2)Man(a1-3)[Man(a1-6)]Man(a1-6)[Man(a1-2)Man(a1-3)]Man(b1-4)GlcNAc(b1-4)GlcNAc
Summary of the method: as §1

[19] = molecular target: Man(a1-2)Man(a1-6)[Man(a1-3)]Man(a1-6)[Man(a1-2)Man(a1-2)Man(a1-3)]Man
Summary of the method: as §1

[20] = molecular target: Man(a1-2)Man(a1-6)[Man(a1-3)]Man(a1-6)[Man(a1-2)Man(a1-2)Man(a1-3)]Man(b1-4)GlcNAc(b1-4)GlcNAc
Summary of the method: as §1

Man(a1-3)[Man(a1-6)]Man = molecular target: Man(a1-3)[Man(a1-6)]Man
Summary of the method: as §1

[21] = molecular target: Man(a1-3)[Man(a1-6)]Man(a1-6)[Man(a1-2)Man(a1-3)]Man(b1-4)GlcNAc(b1-4)GlcNAc
Summary of the method: as §1

[22] = molecular target: Man(a1-3)[Man(a1-6)]Man(a1-6)[Man(a1-3)]Man
Summary of the method: as §1

[23] = molecular target: Man(a1-3)[Man(a1-6)]Man(a1-6)[Man(a1-3)]Man(b1-4)GlcNAc(b1-4)GlcNAc
Summary of the method: as §1

[24] = molecular target: Man(a1-3)[Man(a1-6)]Man(b1-4)GlcNAc(b1-4)GlcNAc
Summary of the method: as §1

Man(a1-6)Man = molecular target: Man(a1-6)Man
Summary of the method: as §1

B1: SAG3 (Toxoplasma gondii), Q9BJ39 (protein)
chain: MQLWRRRAAGPASLGRQSLPLGCFFAAFGLCVLSAILGTGERGLFVAAGNSRRKITYFGTLTQKAPNWYRCSSTRAKEEVVGHVTLNKEHPDMTIECVDDGLGGEFLPLEGARSSYPRVCHIDAKDQDDCERNRGFLTDYIPGAKQYWYKIEKVEQNGEQSVLYKFTVPWILLPPAKQRYKVGCRYPNHEYCFVEVTVEPTPPMVEGKRVTCGYSESGPVNLEVDLSKNANFIEIRCGEQHHPQPSTYTLQYCSGDSVDPQKCSPQSLTNIFYDYSSSWWKGKLNGPDGATLTIPPGGFPEEDKSFLVGCSLTVDGPPFCNVKVRVAGNPRKWERGGGGHPGSGGLQPGTDGETQAGTGSSAGASSRMASVALAFLLGLLVHVAA
glycan array binding signal (z-score) [1]: -0.657 | glycan array binding signal (z-score) (GlcNAc(b1-3)GalNAc): -0.44 | glycan array binding signal (z-score) (GlcNAc(b1-3)Man): 0.13 | glycan array binding signal (z-score) [2]: -0.37 | glycan array binding signal (z-score) [3]: -0.317 | glycan array binding signal (z-score) [4]: -0.039 | glycan array binding signal (z-score) [5]: -0.247 | glycan array binding signal (z-score) (GlcNAc(b1-4)GlcNAc): -0.074 | glycan array binding signal (z-score) [6]: -0.526 | glycan array binding signal (z-score) [7]: -0.599 | glycan array binding signal (z-score) [8]: 0.148 | glycan array binding signal (z-score) [9]: -0.328 | glycan array binding signal (z-score) [10]: 0.257 | glycan array binding signal (z-score) (GlcNAc(b1-6)GalNAc): -0.294 | glycan array binding signal (z-score) (GlcNAc3Prop(b1-4)GlcNAc): -0.494 | glycan array binding signal (z-score) [11]: -0.382 | glycan array binding signal (z-score) (Kdn(a2-3)Gal(b1-3)GalNAc): 0.108 | glycan array binding signal (z-score) (Kdn(a2-3)Gal(b1-3)GlcNAc): -0.331 | glycan array binding signal (z-score) (Kdn(a2-3)Gal(b1-4)Glc): 0.107 | glycan array binding signal (z-score) (Kdn(a2-3)Gal(b1-4)GlcNAc): 0.101 | glycan array binding signal (z-score) [12]: 0.498 | glycan array binding signal (z-score) (Kdn(a2-6)Gal(b1-4)GlcNAc): -0.489 | glycan array binding signal (z-score) [13]: -0.156 | glycan array binding signal (z-score) [14]: 0.913 | glycan array binding signal (z-score) (Man(a1-2)Man(a1-3)Man): -0.077 | glycan array binding signal (z-score) [15]: -0.088 | glycan array binding signal (z-score) [16]: -0.065 | glycan array binding signal (z-score) [17]: -0.609 | glycan array binding signal (z-score) [18]: -0.252 | glycan array binding signal (z-score) [19]: -0.113 | glycan array binding signal (z-score) [20]: -0.029 | glycan array binding signal (z-score) (Man(a1-3)[Man(a1-6)]Man): 0.34 | glycan array binding signal (z-score) [21]: -0.582 | glycan array binding signal (z-score) [22]: -0.388 | glycan array binding signal (z-score) [23]: -0.278 | glycan array binding signal (z-score) [24]: -0.298 | glycan array binding signal (z-score) (Man(a1-6)Man): 0.224
